The values below come from the antibiotic and cytotoxicity screens of Wong et al. (2023).

The other results are listed elsewhere or left out.

In one experiment the test system is HSkMC. Kind of experiment: cytotoxicity call (relative viability < 0.9). The settings on record: 10 µM.
Another experiment relates to HepG2. Description: cytotoxicity call (relative viability < 0.9). The settings on record: 10 µM.
The subject of another experiment is S. aureus RN4220. Description: growth inhibition call (relative growth <= 0.2). As to conditions: 50 µM.

As to `CC(C)(N)CO.Cn1c(=O)c2[nH]c(Br)nc2n(C)c1=O`, the cytotoxicity call with HSkMC and in the experiment with HepG2 was “inactive” each time. Further, the growth inhibition call in the experiment on S. aureus RN4220 was “inactive”.

As for `C[C@@H]1CCCCO[C@@H](CN(C)Cc2ccc3c(c2)OCO3)[C@@H](C)CN([C@@H](C)CO)C(=O)c2cc(NC(=O)Nc3ccc4c(c3)OCO4)ccc2O1`, in the experiment with HSkMC, the cytotoxicity call is “inactive”. Also, the cytotoxicity call in the experiment on HepG2 is “active”. The growth inhibition call with S. aureus RN4220 was “inactive”.

Turning to `C[C@H](CO)N1C[C@H](C)[C@H](CN(C)S(=O)(=O)c2cn(C)cn2)Oc2ccc(NC(=O)Cc3ccccc3)cc2CC1=O`, the cytotoxicity call in the experiment with HSkMC and with HepG2 was “inactive” in each case. In addition, the growth inhibition call with S. aureus RN4220 is “inactive”.

As for `CC(C)C#Cc1cnc2c(c1)C(=O)N([C@H](C)CO)C[C@@H](C)[C@H](CN(C)S(=O)(=O)c1cn(C)cn1)O2`, the cytotoxicity call in the experiment on HSkMC and with HepG2 was “inactive” throughout. Further, the growth inhibition call in the experiment with S. aureus RN4220 is “inactive”.

In the case of `Cc1ccc(C)c(OCCCC(C)(C)C(=O)O)c1`, the cytotoxicity call with HSkMC and in the experiment with HepG2 was “inactive” throughout. For the same molecule, the growth inhibition call with S. aureus RN4220 was “inactive”.

On to `C[C@H](CO)N1C[C@H](C)[C@@H](CN(C)Cc2ccc(Oc3ccccc3)cc2)Oc2ccc(NC(=O)CCC(F)(F)F)cc2CC1=O`, for which, in the experiment with HSkMC, the cytotoxicity call is “inactive”. Moreover, the cytotoxicity call with HepG2 is “active”. Besides, the growth inhibition call with S. aureus RN4220 was “inactive”.

Regarding `CN1CCN(C(=O)C[C@H]2CC[C@@H]3[C@H](COC[C@@H](O)CN3Cc3ccc(Oc4ccccc4)cc3)O2)CC1`, in the experiment on HSkMC, the cytotoxicity call is “inactive”. For the same molecule, the cytotoxicity call in the experiment on HepG2 was “active”. Further, the growth inhibition call in the experiment with S. aureus RN4220 was “inactive”.

Take `COc1ccc(S(=O)(=O)Nc2cccc3c2O[C@@H](CN(C)S(=O)(=O)c2ccccc2)[C@H](C)CN([C@@H](C)CO)C3=O)cc1`: the cytotoxicity call in the experiment on HSkMC and in the experiment with HepG2 was “inactive” in each case. The growth inhibition call in the experiment with S. aureus RN4220 is “inactive”.

In the case of `C[C@@H]1CCCCO[C@H](CN(C)Cc2ccc(C(F)(F)F)cc2)[C@H](C)CN([C@H](C)CO)C(=O)c2cc(NC(=O)Nc3ccc4c(c3)OCO4)ccc2O1`, in the experiment with HSkMC, the cytotoxicity call is “inactive”. Moreover, the cytotoxicity call in the experiment on HepG2 was “active”. For the same molecule, the growth inhibition call in the experiment on S. aureus RN4220 is “inactive”.

With `O=C(c1cnc2ccccc2c1)C1CC1`, the cytotoxicity call in the experiment on HSkMC and in the experiment on HepG2 was “inactive” throughout. In the experiment on S. aureus RN4220, the growth inhibition call is “inactive”.

On to `C[C@@H]1CN([C@@H](C)CO)C(=O)c2cc(NC(=O)CCC(F)(F)F)ccc2O[C@@H](C)CCCCO[C@H]1CN(C)C(=O)C1CCCCC1`, for which the cytotoxicity call in the experiment with HSkMC and in the experiment on HepG2 was “inactive” in each case. In addition, the growth inhibition call in the experiment with S. aureus RN4220 is “inactive”.

Regarding `C[C@@H]1CN([C@@H](C)CO)C(=O)c2cc(C#CC3CCCCC3)cnc2O[C@@H]1CN(C)C(=O)c1ccncc1`, the cytotoxicity call in the experiment on HSkMC and in the experiment with HepG2 was “inactive” throughout. For the same molecule, the growth inhibition call in the experiment with S. aureus RN4220 is “inactive”.

For the molecule `C[C@@H]1CN([C@H](C)CO)C(=O)c2cc(NC(=O)NC3CCCCC3)ccc2O[C@H]1CN(C)Cc1ccc(-c2ccccc2)cc1`, the cytotoxicity call in the experiment with HSkMC and in the experiment on HepG2 was “inactive” in each case. Further, in the experiment on S. aureus RN4220, the growth inhibition call is “inactive”.

Turning to `O=C(C[C@@H]1CC[C@H]2[C@@H](COC[C@@H](O)CN2S(=O)(=O)c2cccc(F)c2)O1)NCCCN1CCOCC1`, the cytotoxicity call in the experiment on HSkMC (human skeletal muscle cells) and in the experiment with HepG2 was “inactive” in each case. For the same molecule, the growth inhibition call with S. aureus RN4220 was “inactive”.
